From the supplement of paper PMC8728848
This is one part of the list.

Assays:
Assay in all cases: glycan array binding signal (z-score within array); higher = stronger binding
Details in all cases: glycan notation: IUPAC condensed, linker removed
[1] = biological target: Neu5Ac(a2-6)Gal(b1-4)GlcNAc6S
Method in brief: (§1)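 The binding signal is a Z-score computed within each array and averaged over linkers. Arrays of the same protein sequence at different concentrations or buffers were also averaged together. Data originate from 3228 arrays in the Consortium for Functional Glycomics database, kept only where the protein sequence was available.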

Neu5Ac(a2-6)GalNAc = biological target: Neu5Ac(a2-6)GalNAc
Method in brief: as §1

[2] = biological target: Neu5Ac(a2-6)GalNAc(b1-4)GlcNAc
Method in brief: as §1

[3] = biological target: Neu5Ac(a2-6)GlcNAc(b1-4)GlcNAc
Method in brief: as §1

[4] = biological target: Neu5Ac(a2-6)GlcNAc(b1-4)GlcNAc(b1-4)GlcNAc
Method in brief: as §1

Neu5Ac(a2-8)Neu5Ac = biological target: Neu5Ac(a2-8)Neu5Ac
Method in brief: as §1

[5] = biological target: Neu5Ac(a2-8)Neu5Ac(a2-3)Gal(b1-4)Glc
Method in brief: as §1

[6] = biological target: Neu5Ac(a2-8)Neu5Ac(a2-3)[GalNAc(b1-4)]Gal(b1-4)Glc
Method in brief: as §1

[7] = biological target: Neu5Ac(a2-8)Neu5Ac(a2-8)Neu5Ac
Method in brief: as §1

[8] = biological target: Neu5Ac(a2-8)Neu5Ac(a2-8)Neu5Ac(a2-3)Gal(b1-4)Glc
Method in brief: as §1

[9] = biological target: Neu5Ac(a2-8)Neu5Ac(a2-8)Neu5Ac(a2-3)[GalNAc(b1-4)]Gal(b1-4)Glc
Method in brief: as §1

[10] = biological target: Neu5Ac(a2-8)Neu5Ac(a2-8)Neu5Ac(a2-8)Neu5Ac(a2-3)[GalNAc(b1-4)]Gal(b1-4)Glc
Method in brief: as §1

[11] = biological target: Neu5Ac(b2-6)Gal(b1-4)GlcNAc
Method in brief: as §1

Neu5Ac(b2-6)GalNAc = biological target: Neu5Ac(b2-6)GalNAc
Method in brief: as §1

[12] = biological target: Neu5Ac9Ac(a2-3)Gal(b1-3)GlcNAc
Method in brief: as §1

[13] = biological target: Neu5Ac9Ac(a2-3)Gal(b1-4)GlcNAc
Method in brief: as §1

[14] = biological target: Neu5Ac9Ac(a2-6)Gal(b1-4)GlcNAc
Method in brief: as §1

[15] = biological target: Neu5Gc(a2-3)Gal(b1-3)GlcNAc
Method in brief: as §1

[16] = biological target: Neu5Gc(a2-3)Gal(b1-3)[Fuc(a1-4)]GlcNAc
Method in brief: as §1

Neu5Gc(a2-3)Gal(b1-4)Glc = biological target: Neu5Gc(a2-3)Gal(b1-4)Glc
Method in brief: as §1

[17] = biological target: Neu5Gc(a2-3)Gal(b1-4)GlcNAc
Method in brief: as §1

[18] = biological target: Neu5Gc(a2-3)Gal(b1-4)[Fuc(a1-3)]GlcNAc
Method in brief: as §1

[19] = biological target: Neu5Gc(a2-6)Gal(b1-4)GlcNAc
Method in brief: as §1

Neu5Gc(a2-6)GalNAc = biological target: Neu5Gc(a2-6)GalNAc
Method in brief: as §1

[20] = biological target: Neu5Gc(b2-6)Gal(b1-4)GlcNAc
Method in brief: as §1

B1: Lmo1413 (Listeria monocytogenes), Q8Y783 (protein)
chain: MKHAKKSLFTFIIFMTILSITFNPFSAKAAPLMLNLPAPQVDQLYIGDDYITGKLQQEVPMHYPGNAAYVLFNNKQYNITDYTVENDVNFRLKLPKTLEAGDTLNYFTITGNVLDPVAYPGQESYKLAGPFSPIEKANIQVNYVDETNQTLATSDTLSGKLGETYTTSPKAIDGYQVKETPTNATGTYTTNTETIQINYVYEKTAVEGANVSVEYINEATNESIAPTETLSGKIGTTFQAEVKEIDGYELSQVPSNQSGTYTDQTQSVIFKYKKITTPDEVAKDVTVTYKDTKGNQLADPVILKGDIGSTFETEAKSFKGYKLTKTPSNHSSVFTSDSQEVEYVYSKDDAVITPPVTPVNPDKPIINPVKPVNPATSTVPNKNISKKNTTKTVNQTGKTSTALQLPKTGDSENNLPLIIGVSLLISGVYIFTTRRKRVK
In the case of B1, the “glycan array binding signal (z-score)” value [1] is reported as -0.248, the “glycan array binding signal (z-score)” value (Neu5Ac(a2-6)GalNAc) is reported as 0.061 and the “glycan array binding signal (z-score)” value [2] is reported as -0.237. The “glycan array binding signal (z-score)” value [3] was -0.193, the “glycan array binding signal (z-score)” value [4] was -0.222 and the “glycan array binding signal (z-score)” value (Neu5Ac(a2-8)Neu5Ac) was -0.2. For the same binder, the “glycan array binding signal (z-score)” value [5] was -0.262, the “glycan array binding signal (z-score)” value [6] was -0.22 and the “glycan array binding signal (z-score)” value [7] was -0.268. For the same binder, the “glycan array binding signal (z-score)” value [8] was -0.246, the “glycan array binding signal (z-score)” value [9] was -0.239 and the “glycan array binding signal (z-score)” value [10] was -0.214. The “glycan array binding signal (z-score)” value [11] was -0.209, the “glycan array binding signal (z-score)” value (Neu5Ac(b2-6)GalNAc) was -0.028 and the “glycan array binding signal (z-score)” value [12] was -0.204. The “glycan array binding signal (z-score)” value [13] was -0.267, the “glycan array binding signal (z-score)” value [14] was -0.263 and the “glycan array binding signal (z-score)” value [15] was -0.192. For the same binder, the “glycan array binding signal (z-score)” value [16] was -0.249, the “glycan array binding signal (z-score)” value (Neu5Gc(a2-3)Gal(b1-4)Glc) was -0.252 and the “glycan array binding signal (z-score)” value [17] was -0.208. For the same binder, the “glycan array binding signal (z-score)” value [18] was -0.201, the “glycan array binding signal (z-score)” value [19] was -0.254 and the “glycan array binding signal (z-score)” value (Neu5Gc(a2-6)GalNAc) was 0.2. For the same binder, the “glycan array binding signal (z-score)” value [20] was -0.209.
